Counter-ions that a name gives are not always drawn. ± gives the standard deviation of the averaged measurements. In all, about 1,900 compounds were measured (“normalised cell viability (NPI; 0 = phenylarsine oxide control, 1 = DMSO control)”: median about 1, lowest 2% from about 0.039 on). This is one part of the list.
System: NCI-H1944
Experiment: normalised cell viability (NPI; 0 = phenylarsine oxide control, 1 = DMSO control) (fraction of DMSO control); NCI-H1944 is a non-small cell lung cancer line; higher = more viable cells (less compound toxicity)
Conditions: 6 days
[1] = glucocorticoid arm: hydrocortisone 2.75 uM co-treatment, compound 1 µM
[2] = glucocorticoid arm: hydrocortisone 2.75 uM co-treatment, compound 5 µM
[3] = glucocorticoid arm: hydrocortisone 2.75 uM pre-treated 2 days and continued, compound 1 µM
[4] = glucocorticoid arm: hydrocortisone 2.75 uM pre-treated 2 days and continued, compound 5 µM
[5] = glucocorticoid arm: vehicle, compound 1 µM
[6] = glucocorticoid arm: vehicle, compound 5 µM
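Also: CTB read-out in 384-well plates, mean of triplicate wells, normalised per plate against 1 µM phenylarsine oxide and 0.1% DMSO, compounds added 24 h after seeding.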

SMILES	normalised cell viability [1]	normalised cell viability [2]	normalised cell viability [3]	normalised cell viability [4]	normalised cell viability [5]	normalised cell viability [6]
COc1cc2nc(N3CCN(C(=O)OCc4ccccc4)[C@H](C(=O)NC(C)(C)C)C3)nc(N)c2cc1OC	1.017 ± 0.0058	1 ± 0.018	1.03 ± 0.031	1.037 ± 0.0058	1.002 ± 0.0072	1.017 ± 0.0058
COCCCC/C(=N\OCCN)c1ccc(C(F)(F)F)cc1 [Fluvoxamine maleate]	1.01	–	–	–	–	–
COC(=O)[C@H](c1ccccc1Cl)N1CCc2sccc2C1 [Clopidogrel]	1.01 ± 0.012	0.982 ± 0.011	1.04 ± 0.021	1.027 ± 0.0058	1.01 ± 0.01	0.993 ± 0.01
C[C@]12CCC(=O)C=C1CC[C@@H]1[C@@H]2C(=O)C[C@@]2(C)[C@H]1CC[C@]2(O)C(=O)CO [Cortisone]	1.007 ± 0.0058	1.01 ± 0.014	1.01 ± 0.011	1 ± 0.012	1.007 ± 0.0058	1.004 ± 0.01
CC(C)NCC(O)c1ccc(O)c(O)c1 (racemic) [Isoprenaline HCl]	1.01 ± 0.01	1.01 ± 0.019	1.02 ± 0.023	1.03 ± 0.023	1.003 ± 0.0058	0.9973 ± 0.0023
CC(C)NCC(O)c1ccc(O)c(O)c1 (racemic) [S(+)-Isoproterenol (+)-bitartrate]	0.9917 ± 0.0072	1.01 ± 0.019	0.9907 ± 0.0063	1.01 ± 0.079	0.9803 ± 0.0011	0.984 ± 0.014
CC(C)NCC(O)c1ccc(O)c(O)c1 (racemic) [(±)-Isoproterenol hydrochloride]	1.01 ± 0.011	1.03 ± 0.042	1.01	1.04 ± 0.064	0.99967 ± 0.00058	1.02 ± 0.021
CC(C)NCC(O)c1ccc(O)c(O)c1 (racemic) [R(-)-Isoproterenol (+)-bitartrate]	1.003 ± 0.0064	1.02 ± 0.021	1.006 ± 0.0063	1.001 ± 0.0085	1.007 ± 0.0058	1.017 ± 0.0058
CCCCCCCCCCCCCCCC(=O)NCC(COP(=O)([O-])OCC[N+](C)(C)C)OCC (racemic) [rac-2-Ethoxy-3-hexadecanamido-1-propylphosphocholine]	1.01 ± 0.01	1.09 ± 0.023	1.007 ± 0.0058	1.113 ± 0.0058	1.013 ± 0.0058	1.02 ± 0.011
CNC(=O)[C@H]1O[C@@H](n2cnc3c(N)ncnc32)[C@H](O)[C@@H]1O [5'-N-Methyl carboxamidoadenosine]	0.982 ± 0.02	0.972 ± 0.015	0.988 ± 0.013	0.961 ± 0.0028	0.9893 ± 0.0078	0.976 ± 0.0053
CC[n+]1c(/C=C/C=C2/N(C)c3ccccc3C2(C)C)sc2ccccc21	0.467 ± 0.026	0.434 ± 0.017	0.901 ± 0.032	0.798 ± 0.02	0.237 ± 0.0069	0.112 ± 0.0067
CNC[C@@H](O)c1ccc(O)c(O)c1 [L-Adrenaline]	1.02 ± 0.017	1.01 ± 0.024	1.01	0.992 ± 0.036	1.003 ± 0.0061	1.002 ± 0.0076
Cc1ccc(S(=O)(=O)C=CC#N)cc1	0.979 ± 0.013	0.976 ± 0.0056	0.9813 ± 0.0023	0.997 ± 0.023	0.988 ± 0.011	0.688 ± 0.081
Cc1ccc(N(CC2=NCCN2)c2cccc(O)c2)cc1 [Phentolamine Mesylate]	0.983 ± 0.016	0.9297 ± 0.0083	0.986 ± 0.022	0.9663 ± 0.0038	0.9897 ± 0.0068	1.003 ± 0.0061
Cc1ccc(N(CC2=NCCN2)c2cccc(O)c2)cc1 [Phentolamine mesylate]	0.9687 ± 0.0031	0.98 ± 0.003	0.997 ± 0.014	0.987 ± 0.01	0.97 ± 0.0044	0.963 ± 0.012
Clc1ccc2c(c1)C(N1CCNCC1)=Nc1ccccc1O2 [Amoxapine]	1.01 ± 0.026	0.994 ± 0.014	0.803 ± 0.32	0.9995 ± 0.00071	0.9907 ± 0.0057	0.985 ± 0.0062
O=C(c1cc(Cc2n[nH]c(=O)c3ccccc23)ccc1F)N1CCN(C(=O)C2CC2)CC1	0.997 ± 0.015	1.02 ± 0.029	1.001 ± 0.0082	1.03 ± 0.011	0.985 ± 0.003	0.89 ± 0.02

SMILES	normalised cell viability [1]	normalised cell viability [2]	normalised cell viability [3]	normalised cell viability [4]	normalised cell viability [5]	normalised cell viability [6]
O=C(O)CCc1nc(-c2ccccc2)c(-c2ccccc2)o1 [Oxaprozin]	1.02	1.03 ± 0.04	1.02 ± 0.011	1.05 ± 0.049	1	1.01 ± 0.015
c1ccc(CC2=NCCN2)cc1 [Tolazoline HCl]	1.013 ± 0.0058	1.01 ± 0.012	1.03 ± 0.011	1.01 ± 0.02	0.9887 ± 0.0035	0.98 ± 0.012
NCCCCC(=O)O [5-Aminovaleric acid hydrochloride]	0.9807 ± 0.0096	0.99533 ± 0.00058	0.9797 ± 0.0035	0.9945 ± 0.00071	0.992 ± 0.0066	0.9927 ± 0.0032
OCCN1CCN(CCCN2c3ccccc3Sc3ccc(C(F)(F)F)cc32)CC1 [Fluphenazine dihydrochloride]	0.969 ± 0.013	0.882 ± 0.022	0.993 ± 0.021	1.007 ± 0.0058	1.013 ± 0.0058	0.988 ± 0.021
CC(C(=O)O)c1ccc(CC2CCCC2=O)cc1 (stereo not drawn) [loxoprofen]	0.992 ± 0.0062	0.977 ± 0.016	0.994 ± 0.017	0.996 ± 0.038	0.9943 ± 0.0049	0.9997 ± 0.0093
O=C1NC(=O)/C(=C\c2ccc3nccnc3c2)S1	0.99 ± 0.011	0.868 ± 0.034	1.01 ± 0.011	0.902 ± 0.025	1 ± 0.015	0.983 ± 0.015
CN(C)CCCN1c2ccccc2CCc2ccc(Cl)cc21 [Clomipramine hydrochloride]	1.01 ± 0.01	0.936 ± 0.023	1.01 ± 0.015	1.01 ± 0.022	1.002 ± 0.0072	1.003 ± 0.0061
CNC(=O)[C@H]1O[C@@H](n2cnc3c(NCc4ccc(N)cc4)ncnc32)[C@H](O)[C@@H]1O	1.01 ± 0.012	0.9953 ± 0.0081	0.997 ± 0.003	1	0.9873 ± 0.0091	1.001 ± 0.0085
COc1cc2c(cc1O)CC[C@@H]1[C@@H]2CC[C@]2(C)[C@@H](O)CC[C@@H]12 [2-Methoxyestradiol (2-MeOE2)]	0.9837 ± 0.0055	1.05 ± 0.011	0.969 ± 0.015	1	0.9883 ± 0.0046	0.476 ± 0.081
COc1cc2c(cc1O)CC[C@@H]1[C@@H]2CC[C@]2(C)[C@@H](O)CC[C@@H]12 [2-methoxyestradiol]	1.003 ± 0.0058	0.419 ± 0.045	1 ± 0.015	1.12 ± 0.076	0.9977 ± 0.0025	0.131 ± 0.009
COC(=O)C1=C(C)NC(C)=C(C(=O)OC)C1c1ccccc1[N+](=O)[O-] [Nifedipine]	1.01 ± 0.01	0.993 ± 0.018	1.013 ± 0.0058	0.884 ± 0.26	0.9983 ± 0.0029	1.01 ± 0.018
COc1cc2c(CCNC(C)=O)c[nH]c2cc1O [6-Hydroxymelatonin]	1.002 ± 0.0074	0.988 ± 0.01	1 ± 0.013	1 ± 0.013	1 ± 0.01	0.992 ± 0.0053
CC(=O)NCC(=O)N1[C@@H]2CC[C@H]1c1ccc(Nc3ncc(C(F)(F)F)c(NC4CCC4)n3)cc12	0.712 ± 0.0091	0.552 ± 0.019	0.83 ± 0.0095	0.717 ± 0.01	0.301 ± 0.018	0.201 ± 0.017
CC(C)[C@H](C(=O)Nc1ccc(C(=O)NO)cc1)c1ccccc1	0.752 ± 0.021	0.00258 ± 0.00047	0.897 ± 0.021	0.00754 ± 0.0016	0.172 ± 0.0081	0.00052 ± 0.00049
C#C[C@]1(OC(C)=O)CC[C@H]2[C@@H]3CCC4=C[C@@H](OC(C)=O)CC[C@@H]4[C@H]3CC[C@@]21C [Ethynodiol diacetate]	1.023 ± 0.0058	1.027 ± 0.0058	1.03	1.027 ± 0.0058	1 ± 0.0087	0.9947 ± 0.005
CC(C)CCN1c2nc(Nc3cc(F)c(O)c(F)c3)ncc2N(C)C(=O)C1C (stereo not drawn)	1.02 ± 0.017	1.033 ± 0.0058	1.02 ± 0.011	0.958 ± 0.013	1.02	0.899 ± 0.02
